# Assay results: publication PMC9911399, “Two distinct binding modes provide the RNA-binding protein RbFox with extraordinary sequence specificity”
# Where a chain is given by its changes, count along the chain named. The list shows a part of the results.
# B1: GAGAUCA (DNA:RNA)
# RNA: GGGAGACCGGAAUUCAGAUUGUCCGAGAUCAUUAAAUCCCGUCGUAGCCACCA
# DNA 1: CAATCTGAATTCCGGTCTCCC
# DNA 2: TGGTGGCTACGACGGGATT
# B2: GGGUAGC (DNA:RNA)
# RNA: B1 RNA with A26G, A28U, U29A, C30G, A31C
# DNA 1: CAATCTGAATTCCGGTCTCCC
# DNA 2: TGGTGGCTACGACGGGATT
# B3: AUAAAGA (DNA:RNA)
# RNA: B1 RNA with G25A, A26U, G27A, U29A, C30G
# DNA 1: CAATCTGAATTCCGGTCTCCC
# DNA 2: TGGTGGCTACGACGGGATT
# B4: GAUCACU (DNA:RNA)
# RNA: B1 RNA with G27U, A28C, U29A, A31U
# DNA 1: CAATCTGAATTCCGGTCTCCC
# DNA 2: TGGTGGCTACGACGGGATT
# B5: GACAAGU (DNA:RNA)
# RNA: B1 RNA with G27C, U29A, C30G, A31U
# DNA 1: CAATCTGAATTCCGGTCTCCC
# DNA 2: TGGTGGCTACGACGGGATT
# B6: UGACCGU (DNA:RNA)
# RNA: GGGAGACCGGAAUUCAGAUUGUCCUGACCGUUUAAAUCCCGUCGUAGCCACCA
# DNA 1: CAATCTGAATTCCGGTCTCCC
# DNA 2: TGGTGGCTACGACGGGATT
# B7: AUAUAUA (DNA:RNA)
# RNA: B1 RNA with G25A, A26U, G27A, A28U, U29A, C30U
# DNA 1: CAATCTGAATTCCGGTCTCCC
# DNA 2: TGGTGGCTACGACGGGATT
# B8: ACUUCUA (DNA:RNA)
# RNA: B1 RNA with G25A, A26C, G27U, A28U, U29C, C30U
# DNA 1: CAATCTGAATTCCGGTCTCCC
# DNA 2: TGGTGGCTACGACGGGATT
# B9: UAACAUG (DNA:RNA)
# RNA: B6 RNA with G26A, C29A, G30U, U31G
# DNA 1: CAATCTGAATTCCGGTCTCCC
# DNA 2: TGGTGGCTACGACGGGATT
# B10: UCAGUAU (DNA:RNA)
# RNA: B6 RNA with G26C, C28G, C29U, G30A
# DNA 1: CAATCTGAATTCCGGTCTCCC
# DNA 2: TGGTGGCTACGACGGGATT
# B11: GGUCGCA (DNA:RNA)
# RNA: B1 RNA with A26G, G27U, A28C, U29G
# DNA 1: CAATCTGAATTCCGGTCTCCC
# DNA 2: TGGTGGCTACGACGGGATT
# B12: GGGUUAA (DNA:RNA)
# RNA: B1 RNA with A26G, A28U, C30A
# DNA 1: CAATCTGAATTCCGGTCTCCC
# DNA 2: TGGTGGCTACGACGGGATT
# B13: GCCGUGC (DNA:RNA)
# RNA: B1 RNA with A26C, G27C, A28G, C30G, A31C
# DNA 1: CAATCTGAATTCCGGTCTCCC
# DNA 2: TGGTGGCTACGACGGGATT
# B14: CUGACCG (DNA:RNA)
# RNA: B1 RNA with G25C, A26U, U29C, A31G
# DNA 1: CAATCTGAATTCCGGTCTCCC
# DNA 2: TGGTGGCTACGACGGGATT
# B15: GUACAAU (DNA:RNA)
# RNA: B6 RNA with U25G, G26U, C29A, G30A
# DNA 1: CAATCTGAATTCCGGTCTCCC
# DNA 2: TGGTGGCTACGACGGGATT
# B16: UUAUCAG (DNA:RNA)
# RNA: B6 RNA with G26U, C28U, G30A, U31G
# DNA 1: CAATCTGAATTCCGGTCTCCC
# DNA 2: TGGTGGCTACGACGGGATT
# B17: AGCAGUU (DNA:RNA)
# RNA: B6 RNA with U25A, A27C, C28A, C29G, G30U
# DNA 1: CAATCTGAATTCCGGTCTCCC
# DNA 2: TGGTGGCTACGACGGGATT
# B18: UCCAACA (DNA:RNA)
# RNA: B1 RNA with G25U, A26C, G27C, U29A
# DNA 1: CAATCTGAATTCCGGTCTCCC
# DNA 2: TGGTGGCTACGACGGGATT
# B19: UUGGGGA (DNA:RNA)
# RNA: B1 RNA with G25U, A26U, A28G, U29G, C30G
# DNA 1: CAATCTGAATTCCGGTCTCCC
# DNA 2: TGGTGGCTACGACGGGATT
# B20: CCAUUAA (DNA:RNA)
# RNA: B1 RNA with G25C, A26C, G27A, A28U, C30A
# DNA 1: CAATCTGAATTCCGGTCTCCC
# DNA 2: TGGTGGCTACGACGGGATT
# B21: AGUCAUG (DNA:RNA)
# RNA: B6 RNA with U25A, A27U, C29A, G30U, U31G
# DNA 1: CAATCTGAATTCCGGTCTCCC
# DNA 2: TGGTGGCTACGACGGGATT
# B22: AACCACA (DNA:RNA)
# RNA: B1 RNA with G25A, G27C, A28C, U29A
# DNA 1: CAATCTGAATTCCGGTCTCCC
# DNA 2: TGGTGGCTACGACGGGATT
# B23: GUCUAGU (DNA:RNA)
# RNA: B6 RNA with U25G, G26U, A27C, C28U, C29A
# DNA 1: CAATCTGAATTCCGGTCTCCC
# DNA 2: TGGTGGCTACGACGGGATT
# B24: UGUUCGG (DNA:RNA)
# RNA: B6 RNA with A27U, C28U, U31G
# DNA 1: CAATCTGAATTCCGGTCTCCC
# DNA 2: TGGTGGCTACGACGGGATT
# B25: CUUGAUU (DNA:RNA)
# RNA: B6 RNA with U25C, G26U, A27U, C28G, C29A, G30U
# DNA 1: CAATCTGAATTCCGGTCTCCC
# DNA 2: TGGTGGCTACGACGGGATT
# B26: UUGGGGU (DNA:RNA)
# RNA: B6 RNA with G26U, A27G, C28G, C29G
# DNA 1: CAATCTGAATTCCGGTCTCCC
# DNA 2: TGGTGGCTACGACGGGATT
# B27: UGGCUUC (DNA:RNA)
# RNA: B6 RNA with A27G, C29U, G30U, U31C
# DNA 1: CAATCTGAATTCCGGTCTCCC
# DNA 2: TGGTGGCTACGACGGGATT
# B28: GUGUAUC (DNA:RNA)
# RNA: B1 RNA with A26U, A28U, U29A, C30U, A31C
# DNA 1: CAATCTGAATTCCGGTCTCCC
# DNA 2: TGGTGGCTACGACGGGATT
# B29: UGGCUAA (DNA:RNA)
# RNA: B1 RNA with G25U, A26G, A28C, C30A
# DNA 1: CAATCTGAATTCCGGTCTCCC
# DNA 2: TGGTGGCTACGACGGGATT
# B30: UAACAAA (DNA:RNA)
# RNA: B6 RNA with G26A, C29A, G30A, U31A
# DNA 1: CAATCTGAATTCCGGTCTCCC
# DNA 2: TGGTGGCTACGACGGGATT
# B31: CGUUUGG (DNA:RNA)
# RNA: B6 RNA with U25C, A27U, C28U, C29U, U31G
# DNA 1: CAATCTGAATTCCGGTCTCCC
# DNA 2: TGGTGGCTACGACGGGATT
# Target: T1, RBFOX1 RRM (Homo sapiens, UniProt Q9NWB1 109-208)
# T1 sequence: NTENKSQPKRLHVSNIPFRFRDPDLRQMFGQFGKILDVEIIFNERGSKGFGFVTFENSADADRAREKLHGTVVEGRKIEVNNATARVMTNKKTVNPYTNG
# Test: EMSA; HiTS-Eq, 1 nM pool, 10 min; buffer printed only for the single-RNA assays: 10 mM Tris pH 7.5, 150 mM NaCl, 3.4 mM EDTA, 0.001% NP-40, 30 C
# Conditions: tags: His6 N-terminal (pET28a); label: 5' 32P
# Method in brief: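 A pool of RNA with 7 randomized nucleotides, 5′-radiolabelled and with DNA-annealed flanks, was equilibrated at 1 nM for 10 min in 50 µL with purified RbFox RRM, wild type or mutant, across increasing protein concentrations. Free RNA was separated by 8% native PAGE, excised, reverse-transcribed, barcoded by PCR and sequenced. Relative association constants were obtained from read-count changes of each RNA species versus the control reaction and normalised to the cognate motif.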
row,Binder,binding signal
1,B1,0.00685 KA relative to UGCAUGU
2,B2,0.0138 KA relative to UGCAUGU
3,B3,0.00273 KA relative to UGCAUGU
4,B4,0.0055 KA relative to UGCAUGU
5,B5,0.0114 KA relative to UGCAUGU
6,B6,0.0185 KA relative to UGCAUGU
7,B7,0.00148 KA relative to UGCAUGU
8,B8,0.00304 KA relative to UGCAUGU
9,B9,0.0098 KA relative to UGCAUGU
10,B10,0.00817 KA relative to UGCAUGU
11,B11,0.0125 KA relative to UGCAUGU
12,B12,0.0149 KA relative to UGCAUGU
13,B13,0.02 KA relative to UGCAUGU
14,B14,0.0123 KA relative to UGCAUGU
15,B15,0.0045 KA relative to UGCAUGU
16,B16,0.0137 KA relative to UGCAUGU

row,Binder,binding signal
1,B17,0.00834 KA relative to UGCAUGU
2,B18,0.00152 KA relative to UGCAUGU
3,B19,0.00758 KA relative to UGCAUGU
4,B20,0.00229 KA relative to UGCAUGU
5,B21,0.0134 KA relative to UGCAUGU
6,B22,0.00121 KA relative to UGCAUGU
7,B23,0.0158 KA relative to UGCAUGU
8,B24,0.024 KA relative to UGCAUGU
9,B25,0.0132 KA relative to UGCAUGU
10,B26,0.0132 KA relative to UGCAUGU
11,B27,0.0201 KA relative to UGCAUGU
12,B28,0.0101 KA relative to UGCAUGU
13,B29,0.0139 KA relative to UGCAUGU
14,B30,0.001 KA relative to UGCAUGU
15,B31,0.0143 KA relative to UGCAUGU
